This is an account of results in PubChem BioAssay AID488969 (Vanderbilt High Throughput Screening Facility, 2010).

Over roughly 110,000 compounds, “z-score” has its median near -0.1; the highest 2% begin near 2. Some of the results follow. The source made the active and inactive calls.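 The calls were made as follows: active = z-score in the third read window above 3 or below -3; inactive = the rest.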

For the assay, the target named is Metabotropic glutamate receptor 8 (Rattus norvegicus) (UniProt P70579). Briefly: rat mGluR8 modulators via GIRK flux, primary screen, cell-based, thallium flux, HTS (AID 488969). To be noted: HEK293 rat mGluR8, GIRK (G protein-gated inwardly rectifying potassium channel) thallium flux, FluoZin2; at 10 µM; stronger effect = higher value; submaximal glutamate (EC20) added with thallium.
Sequence of UniProt P70579 (P70579 whole entry, looked up): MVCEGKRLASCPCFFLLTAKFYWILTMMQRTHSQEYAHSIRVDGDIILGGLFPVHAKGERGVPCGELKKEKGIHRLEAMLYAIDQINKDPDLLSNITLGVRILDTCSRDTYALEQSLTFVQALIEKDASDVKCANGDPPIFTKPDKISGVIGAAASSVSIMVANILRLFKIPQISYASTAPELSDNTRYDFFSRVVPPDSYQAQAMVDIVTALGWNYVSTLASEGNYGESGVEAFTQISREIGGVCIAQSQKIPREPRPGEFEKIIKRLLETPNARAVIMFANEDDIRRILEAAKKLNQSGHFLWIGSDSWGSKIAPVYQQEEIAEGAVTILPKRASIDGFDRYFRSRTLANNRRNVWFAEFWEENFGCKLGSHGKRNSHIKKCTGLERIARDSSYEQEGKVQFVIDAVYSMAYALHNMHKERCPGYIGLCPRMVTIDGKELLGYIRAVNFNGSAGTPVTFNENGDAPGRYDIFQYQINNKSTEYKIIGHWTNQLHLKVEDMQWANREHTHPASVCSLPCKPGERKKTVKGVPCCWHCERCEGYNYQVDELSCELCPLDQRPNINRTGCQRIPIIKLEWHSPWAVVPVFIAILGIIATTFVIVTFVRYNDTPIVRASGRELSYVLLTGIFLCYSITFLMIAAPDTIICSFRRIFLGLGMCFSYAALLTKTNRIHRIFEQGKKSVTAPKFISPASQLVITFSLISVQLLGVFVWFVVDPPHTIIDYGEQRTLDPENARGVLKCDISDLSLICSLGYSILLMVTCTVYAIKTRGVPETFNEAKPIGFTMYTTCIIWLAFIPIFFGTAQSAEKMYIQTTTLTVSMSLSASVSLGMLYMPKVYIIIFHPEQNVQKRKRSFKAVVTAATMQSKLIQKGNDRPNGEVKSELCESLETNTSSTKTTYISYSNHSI
`CNC(=O)c1cc(S(=O)(=O)N(C)C)ccc1Cl` displayed a z-score of -0.308.
Under `COc1cccc(CNC(=O)C2CCN(S(=O)(=O)c3ccc(F)cc3)CC2)c1` stands -0.472.
In the case of `Cc1cc2cc3c(N)[nH]nc3nc2cc1C` it was -0.232.
In turn, `O=C(N/N=C1\CCCc2ccccc21)C(O)c1ccccc1` (centres undefined) registered a z-score of 0.283.
In the case of `Oc1csc(Cc2nc(-c3ccc(-c4ccccc4)cc3)cs2)n1` it was -0.229.
In the case of `CCOC(=O)C(=Cc1ccc(OCc2ccc([N+](=O)[O-])cc2)c(OC)c1)C(=O)OCC` it was -0.114; in that of `O=C(c1ccc(NS(=O)(=O)c2cccc3cccnc23)cc1)N1CCOCC1`, 0.74; in that of `C=CCn1c(SCC(=O)NCc2ccco2)nc2sc3c(c2c1=O)CCCCC3`, 0.0377.
`COc1ccc(NC(=O)N2CCN(CCC#N)CC2)cc1` gave a z-score of -0.122.
For the compound `Cc1cccn2c(=O)c(/C=C(\C#N)C(=O)NC3CCS(=O)(=O)C3)c(N3CCC(C)CC3)nc12` (centres undefined), the z-score was -0.0747.
Under `Cc1cc2cc(CCNC(=O)CC(C)C)c(=O)[nH]c2cc1C` stands -0.854; under `COc1ccc2nc(N3CCCC3)[nH]c2c1`, -0.0525.
Under `COc1cc(OC)nc(Oc2ccccc2C(=O)Oc2ccc(F)cc2Cl)n1` stands -0.428; under `O=C1N(c2ccc(Cl)cc2)C(c2ccc(Cl)cc2)N2CCCN12` (centres undefined), -0.362; under `Cc1cc(NC(=O)c2ccc(S(=O)(=O)N3CCOCC3)cc2)nc2c1c(=O)oc1ccccc12`, -0.153.
In the case of `CC(C)OC(=O)c1c(F)c(F)c(N2CCOCC2)c(F)c1F` it was 0.337; in that of `O=C(NC(=S)N1CCCc2ccccc21)c1ccccc1`, active: 4.54; in that of `COc1ccccc1C(=O)N1CCN(c2cccc(Cl)c2)CC1`, 0.229.
Compound `COc1ccc(OC)c(NC(=O)[C@H]2CC=CC[C@H]2C(=O)O)c1` returned a z-score of -0.0282.
The compound `CCOC(=O)c1nn(-c2ccc(C)cc2)c(C)c1C(C)=O` came in with a z-score of 0.0525.
In the case of `CC1=CCC(C(C)(C)NC(=O)c2ccccc2)C/C1=N\O` (centres undefined) it was 0.125.
In the case of `C1=C(c2ccccc2)Nc2nnnn2C1` it was -0.0303; in that of `COc1ccc(Br)cc1CNC(=O)Nc1cccs1`, 1.49; in that of `O=C(NNC(=O)c1cccnc1)Nc1ccc(Cl)c(Cl)c1`, -0.192.
`COc1ccc(/C(C)=N/NC(=O)Cc2c(C)nc(C)[nH]c2=O)cc1` registered a z-score of -0.151.
Under `COc1cccc(CNC(=O)CN(C)S(=O)(=O)c2cnc[nH]2)c1` stands 1.34; under `CCOc1cc(C(=O)Nc2ccc3c(c2)OCO3)ccc1OC(F)F`, 0.487; under `Cn1nc(-c2ccc(Cl)cc2)c2cc(C(=O)NCCCN3CCCC3)sc21`, 0.212.
In the case of `Cc1nn(C)cc1NC(=O)CC12CC3CC(CC(C3)C1)C2` it was -0.0159.
In the case of `Fc1cccc(NCc2cn3ccccc3n2)c1` it was 0.0674.
In turn, `O=C(NC(=O)c1ccccc1)NC1(C(F)(F)F)OCCO1` showed a z-score of 0.718.
In the case of `O=C(CC1Sc2ccccc2NC1=O)Nc1ccccc1[N+](=O)[O-]` (centres undefined) it was -0.202.
The compound `CCOC(=O)c1sc(NC(=O)CSc2nc(C)cc(-c3ccccc3)n2)c(C#N)c1C` displayed a z-score of -0.169.
For `COC(=O)Nc1nnc(Cc2ccc(OC)cc2)s1`, the z-score is -0.342.
In the case of `Cc1ccc(C(C)C)cc1OCCOCCN1CCCC1`, the z-score was 0.0157.
For `CCOc1ccccc1NC(=O)COC(=O)CN(C)S(=O)(=O)c1ccc(C)cc1`, the z-score is -0.714.
Under `CC(C)c1ccc(C(=O)N2CCN(CCO)CC2)cc1` stands -0.0351.
In the case of `O=C(N/N=C/c1cnc2ccccc2n1)c1cccc(F)c1` it was 0.223; in that of `Cc1cc(C)n2c(SC/C(O)=C(\C#N)c3nc4ccccc4[nH]3)nnc2n1`, 0.166.
`CC1CC(C(F)(F)F)n2ncnc2N1` (centres undefined) showed a z-score of 0.187.
In turn, `CCC(=O)Nc1cccc(NC(=O)c2ccc(C)c([N+](=O)[O-])c2)c1` returned a z-score of -0.296.
In the case of `CC1(C)CC(=O)C=C(Nc2ccccn2)C1` it was -0.035.
For `CCN(CC)c1ccc(CNC23CN4CN(CN(C4)C2)C3)cc1`, the z-score was 0.0209.
Under `COc1ccc(C(=O)SC2=NCCS2)cc1` stands 0.159; under `CN(CC(=O)Nc1cccc2c1CCCC2)S(=O)(=O)c1ccc(Cl)cc1`, -0.214.
In turn, `O=C(c1ccccc1)N1CCN(CC#Cc2ccccc2)CC1` yielded a z-score of -0.575.
Under `O=C(CCSCCC(=O)Nc1ccccc1F)Nc1ccccc1F` stands -0.0512; under `O=C(CSc1nnc(Cc2ccccc2)n1-c1ccc(Cl)cc1)N1CCOCC1`, -0.408.
In turn, `O=C1C2C3C=CC(CO)(O3)C2C(=O)N1c1ccc(-c2ccccc2)cc1` (centres undefined) returned a z-score of -0.187.
On to `CCOC(=O)CN1C(=O)S/C(=C/c2ccc(N3CCCCC3)o2)C1=O`, for which the z-score was -0.277.
In the case of `O=C(Nc1ccc(N2CCN(Cc3ccccc3)CC2)cc1)c1cccnc1` it was -0.204; in that of `CCn1c(-c2cccnc2Cl)nc2ccccc21`, -0.102.
As to `O=C(COC(=O)CSc1cccc2cccc(Cl)c12)Nc1ncc(C(F)(F)F)cc1Cl`, the z-score was -0.127.
Under `CSc1nc(N)c2c3c(sc2n1)COC(C(C)C)C3` (centres undefined) stands -0.112; under `COc1nc2c(C)cccc2cc1-c1noc(-c2ccco2)n1`, -0.0947; under `CC(C)COC(=O)C(N)C(C(=O)OCC(C)C)c1ccccc1` (centres undefined), -0.36.
In the case of `COc1ccc(CN2CC(C(=O)NCCc3ccc(C)cc3)CC2=O)cc1` (centres undefined) it was 0.173.
In turn, `CCn1c2ccccc2c2cc(NC(=O)CC(C)=O)ccc21` yielded a z-score of -0.32.
Under `Cc1noc(C)c1C(=O)Nc1sc(C)c(-c2ccccc2)c1C#N` stands -0.541; under `CC(C)CC(=O)OCC(=O)Nc1ccccc1Sc1ccccc1`, -0.214.
Under `COc1cc(-c2nnc(SCC(=O)N3CCCC3)o2)cc(OC)c1OC` stands 2.2.
Under `c1ccc2c(Oc3ccc4c(c3)OCO4)nncc2c1` stands -0.0366; under `COc1ccc(NC(=O)NC2(C(=O)N3CCCCCC3)CCCCC2)cc1`, -0.0954.
As to `CNc1nc(SCc2ccccc2Cl)nc2c1CCCC2`, the z-score is -0.358.
Under `Cc1ccc(C(=O)NCc2nnc(SCC(=O)Nc3sc4c(c3C#N)CCCC4)n2C)cc1` stands 0.525; under `Cc1ccc(-n2cnc3cc(NCc4cccs4)ccc32)cc1`, -0.548.
In the case of `CC(=O)Nc1cnc2ccccc2n1` it was -0.46; in that of `Cc1c(Cl)cccc1NC(=O)c1nc(C)n(-c2cc(OC(C)C)c(Cl)cc2Cl)n1`, -0.121.
Regarding `CC1CN(c2ncnc3c2cnn3-c2ccc(Cl)cc2)CC(C)O1` (centres undefined), the z-score is -0.335.
As to `CCOC(=O)c1sc(C)c2c(=O)n(Cc3ccc(Cl)cc3)c(C)nc12`, the z-score was -0.425.
In the case of `COc1ccc(NC2=NC(=S)N(c3ccc(C)cc3)C23CCCCC3)cc1` it was 0.796; in that of `COC(=O)C(C)(C)ONC(=O)Nc1ccc(C)cc1`, -0.18; in that of `COc1cccc(OC)c1OCCNC(C)(C)C`, -0.0552.
As for `CCN(CC)c1ccc(C2C3CCCCC3(O)CCN2C(=O)c2cccs2)cc1` (centres undefined), the z-score is -0.585.
